Measured values: article PMC12040169 (PLOS Biology, 2025)
Some of the results follow.

What follows are molecules tested on T1, C. trachomatis L2/434/Bu expressing GFP (CTL2-GFP). Conditions: total inclusion area; 28.5 h, 10 µM; inhibitor.
T1 construct: L2/434/Bu GFP intracellular growth in HeLa cells
Design: species or system HeLa; C. trachomatis total inclusion area by high-content imaging, normalised to DMSO
In short: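 Following bulk GFP and resorufin fluorescence reads, infected cells were fixed, Hoechst-stained and imaged on a high-content platform. Inclusion total area and number per well served as growth proxies; nuclei counts indicated host viability. MICs were derived as for the fluorescence assay.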

SMILES	% of control remaining
Cn1ccc2cc(NS(=O)(=O)c3ccc4[nH]c(=O)[nH]c(=O)c4c3)ccc21 [CBK286364]	91.1232
CC(=O)Nc1cccc(-c2cc(N3CCN(C(=O)c4ccco4)CC3)ncn2)c1 [CBK036959]	93.8107
COc1ccccc1N1CCN(CC(O)COCc2ccc3c(c2)OCO3)CC1 (stereo not shown) [CBK278323C]	102.964
CC(C)[C@H](CO)Nc1cncc(-c2cccc3ccccc23)n1 [CBK065501]	94.6941
O=C(O)c1ccc(NC(=O)C2CCN(S(=O)(=O)c3ccccc3)CC2)cc1 [CBK265181]	78.4743
CN1C(=O)C(CC(=O)Nc2ccc(F)cc2)N(CCc2ccccc2)C1=S (stereo not shown) [CBK263861]	84.3096
CC1CCN(CCN2CCn3c2nc2ccccc23)CC1 [CBK265467B]	82.0447
CC(C)(CO)CNc1cncc(-c2cccs2)n1 [CBK065599]	87.3553
O=C1c2ccccc2CN1c1ccccc1 [CBK113189]	51.86
CC(=O)Nc1cccc(NC(=O)CSc2ccc(C(F)(F)F)cc2[N+](=O)[O-])c1 [CBK264758]	100.412
O=c1[nH]nc2c(S(=O)(=O)N3CCCC3)cccn12 [CBK288460]	66.7185
CC(C)NC(=O)c1cc(C2CN(Cc3ccc4ncccc4c3)CCO2)nc2ccccc12 (stereo not shown) [CBK285895]	91.655
CCCC(=O)N1CCCCC1c1c(-c2onc(C)c2C)cnn1C (stereo not shown) [CBK282259]	74.5954
O=C(Nc1ccncc1)c1cc2cc(F)ccc2[nH]1 [CBK107346]	91.2867
O=C(Nc1cccc(OCc2ccccc2)c1)c1cnc(-c2ccc(Cl)cc2)c(-c2ccco2)c1 [CBK037429]	141.097
CC(C)CC(NC(=O)Cc1cccc(O)c1)c1ncnn1C (stereo not shown) [CBK307050]	81.6582
CC1(NC(=O)Cn2c(C(F)(F)F)nc3ccccc32)CCC1 [CBK281606]	106.242
COc1ccc(CN2CCOCC2CC(=O)O)cc1Cn1cncn1 (stereo not shown) [CBK307220]	75.7427
COc1ccc(CCNc2nc(-c3ccccn3)cs2)cc1OC [CBK267260]	117.396
CS(=O)(=O)c1ccc(-c2ccc3c(c2)COC(C2CCN(C(=O)c4ccccc4O)CC2)O3)cc1 (stereo not shown) [CBK158682]	88.6138
Cc1nn(-c2ccccc2)c2c1C(c1cnn(C)c1)SCC(=O)N2 (stereo not shown) [CBK287896]	71.5217
Cc1ccn(CCC(=O)N2CCCC(c3cc4cccnc4[nH]3)C2)n1 (stereo not shown) [CBK284927]	102.815
c1ccc(CCNc2nc(-c3cccs3)cn3ccnc23)nc1 [CBK066633]	94.3988
N#Cc1c(NC(=O)CSc2nnc(N)s2)sc2c1CCCC2 [CBK266649]	101.219
Cc1ccnc2nc(C(=O)OC(C)C(=O)N3CCCCCC3)nn12 (stereo not shown) [CBK306155]	70.9117
O=c1oc2ccccc2c2c1nnn2CCCN1CCOCC1 [CBK261470C]	90.8889

SMILES	% of control remaining
CC[C@H]1CN(C(=O)c2cccnc2)CC[C@H]1CC(=O)N1CCC(C(N)=O)CC1 [CBK288772]	71.7979
COc1cc(NC(=O)c2cnc(-c3ccc(Cl)cc3)c(-c3ccco3)c2)cc(C(F)(F)F)c1 [CBK037570]	83.7047
Cc1cc(C)c2nc(NC(=O)c3ccccc3)sc2c1 [CBK287308]	100.248
COc1c(Cl)cc(Cl)cc1CNC1CCCc2c1cnn2C (stereo not shown) [CBK304305C]	81.0365
CC(=O)COc1cc(OCC(C)=O)c2c3c(c(=O)oc2c1)CCC3 [CBK307219]	56.857
O=C(O)c1cc(-c2ccccc2)nc(Nc2nc3ccccc3s2)n1 [CBK264665]	101.006
COc1cccc(-c2nn(CCC#N)cc2C(N)=O)c1 [CBK305835]	104.015
COc1cccc(-c2nnn(CC(=O)O)n2)c1 [CBK068202]	86.7033
O=[N+]([O-])c1ccc(COc2cccc(/C=N/Nc3nc4ccccc4s3)c2)cc1 [CBK262160]	96.131
CS(=O)(=O)N(CC(=O)Nc1ccc(S(N)(=O)=O)cc1)Cc1ccc(Cl)cc1 [CBK267512]	96.8392
CC(C)(C)c1ccc(-n2cc(-c3ccc(F)cc3)nn2)cc1 [CBK113112]	78.2042
CCN(C(=O)Nc1ccc(-c2ccco2)cc1)C1CCOCC1 [CBK306916]	86.5469
Cc1nc(O)cc(CCn2cc(-c3cncnc3)nn2)n1 [CBK306712]	73.9645
O=S(=O)(Nc1ccc(C(O)(C(F)(F)F)C(F)(F)F)cc1)c1ccc(-c2ccon2)s1 [CBK062105]	109.019
OC1CCN(c2nccc(C(F)(F)F)n2)CC1 [CBK038372]	20.7549
CCOc1cc(/C=C2\SC(=S)N(Cc3ccccc3)C2=O)cc(Cl)c1OC(=O)c1ccco1 [CBK265509]	92.9603
CCN1CCCC1CNC(=O)C(=O)Nc1ccccc1OC (stereo not shown) [CBK266865]	87.5843
Cc1cccc(NC(=O)CC(C(=O)O)N2CCOCC2)c1 (stereo not shown) [CBK266925]	93.1622
COc1cccc(C(=O)NC(=S)Nc2ccc(C(=O)O)c(Cl)c2)c1 [CBK265065]	108.391
CN1CCCCCC1c1nc(-c2ccccc2)nn1CCCO (stereo not shown) [CBK307653]	59.8541
O=C(c1c[nH]c(C(=O)N2CCN(c3ccccn3)CC2)c1)c1ccc(Cl)cc1Cl [CBK107419]	77.1789
COc1nc(NCc2ccco2)nc(OC)n1 [CBK027479]	61.0429
Cc1cc(-c2csc(CC(C)n3cc(Cl)cn3)n2)on1 (stereo not shown) [CBK304700]	82.9934
CC1CC(Nc2ccccc2)c2ccccc2N1C(=O)CCCC(=O)O (stereo not shown) [CBK286960]	98.7442
N#CCCN(C(=O)NC1CCc2ccccc21)C1CCCCC1 (stereo not shown) [CBK156383]	113.694
Cc1ccnn1CCC(=O)NC1(c2ccccc2F)CCCC1 [CBK283691]	65.2439
